Reference: the supplement of paper PMC10126150
Values marked as one replicate rest on one cluster of the flow cell; about a third of the high ones do not repeat.

These sequences were tested on ATP (assay: switch fluorescence ratio, 500 uM ATP over buffer (Cy3 cluster intensity, sum of 5 cycles each) (fold (ratio)); higher = stronger signal-on switching upon ATP binding; sequences stand for … in TCGTCGGCAGCGTCAGATGTGTATAAGAGACAGTTTTTTTTTTTTTTTTTTTTTTTTT…TC). Details: aptamer strand: ATP DNA aptamer (quencher-CACCTGGGGGAGTATTGCGGAGGAAGG + anchor), 100 nM annealed; ATP concentration: 500 uM; one replicate.
Method in brief: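 Cy3-labelled switching-strand clusters on a modified Illumina MiSeq flow-cell were annealed to 100 nM quencher-labelled ATP aptamer, imaged in selection buffer, then imaged after 15 min with 500 uM ATP at 22 °C. Five buffer/ATP cycles ran, with NaOH stripping and re-annealing between them. The fluorescence ratio is summed target-cycle over summed buffer-cycle Cy3 intensity per cluster, averaged per switch-domain sequence. Clusters outside 100-1000 RFU were excluded.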
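Also: ATP exposure 15 min at 22 °C before imaging.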

Sequence | switch fluorescence ratio
TGTAATGGGC | 0.991
TGTAATGTTT | 0.982
TGTACACATG | 1.01
TGTACCCAAC | 1.47
TGTACCCGCG | 1.1
TGTACGCTCA | 1.04
TGTACGGCAT | 1.07
TGTACGGCTT | 1
TGTAGCCGGG | 1.03
TGTAGCTCTA | 1.02
TGTAGGCGCT | 1.02
TGTAGGTA | 0.93
TGTAGGTCAG | 0.94
TGTAGGTGTC | 0.997
TGTAGTGTGG | 0.963
TGTATAACCC | 0.942
TGTATAACTC | 0.94
TGTATCAAGC | 1.05
TGTATGATAG | 1
TGTATGCGGG | 0.959
TGTATGGCGA | 0.973
TGTATGGTGA | 1.04
TGTATTCCCT | 1.01
TGTATTGGAG | 0.998
TGTCAACCTA | 1.06
TGTCACGAAG | 0.986

Sequence | switch fluorescence ratio
TGTCAGTATG | 1
TGTCAGTCGT | 1.01
TGTCATAGG | 0.999
TGTCCACGGG | 1.1
TGTCCATTAC | 1.15
TGTCCTTGGC | 0.995
TGTCCTTGGT | 0.987
TGTCGACACA | 0.959
TGTCGAGAAA | 0.958
TGTCGAGCTA | 0.992
TGTCGAGGTT | 0.944
TGTCGCGTAA | 1.04
TGTCGCTTTG | 1.05
TGTCTAAGCG | 0.989
TGTCTAATGT | 0.993
TGTCTCCTAA | 0.985
TGTCTGGATA | 0.986
TGTGACAACG | 0.984
TGTGACACTC | 1.02
TGTGACATGC | 0.99
TGTGACTTGA | 1.03
TGTGAGATG | 1.05
TGTGAGCGGA | 0.996
TGTGAGGAAA | 1.01
TGTGATGCT | 1
TGTGCCGACG | 1.07

Sequence | switch fluorescence ratio
TGTGCGTCCT | 1.08
TGTGCTCTGA | 0.969
TGTGCTGCC | 1.05
TGTGCTTTTC | 0.97
TGTGGACATC | 1.07
TGTGGAGATG | 1.01
TGTGGAGCAC | 1.38
TGTGGAGGTG | 1.03
TGTGGAGTTA | 0.986
TGTGGCATCG | 0.963
TGTGGCCTCC | 1.02
TGTGGCGTAC | 1.04
TGTGGCTGCT | 1.07
TGTGGCTTCT | 0.935
TGTGGGAGTT | 0.979
TGTGGGATCA | 1.04
TGTGGGTCTT | 0.982
TGTGGGTGC | 0.992
TGTGGTAAGC | 0.989
TGTGGTACGA | 1.04
TGTGGTATCC | 0.984
TGTGGTCCAC | 0.971
TGTGGTTAC | 1
TGTGTAATAC | 3.86
TGTGTACAGC | 1.06
TGTGTAGATG | 1.02

Sequence | switch fluorescence ratio
TGTGTGAG | 0.976
TGTGTGAGGA | 1.04
TGTGTGCAGG | 0.915
TGTGTGCCCT | 1.23
TGTGTGCTTA | 0.984
TGTGTGGTCT | 1.06
TGTGTTAAGT | 0.979
TGTGTTCATG | 0.975
TGTGTTGATA | 1.01
TGTGTTGGA | 1.02
TGTTAAATA | 1.04
TGTTAATTTA | 1.01
TGTTACAGAT | 1.05
TGTTACCTGT | 1.04
TGTTAGGG | 1.01
TGTTATAAG | 0.985
TGTTATACAA | 1.03
TGTTATGAAG | 0.972
TGTTATGGAT | 1.02
TGTTATTGTG | 1.01
TGTTATTTGG | 0.952
TGTTCATGCT | 0.96
TGTTCGGGGG | 1
TGTTCTCCGG | 1.02
TGTTCTCCTC | 1.05
TGTTCTTCTG | 0.977

Sequence | switch fluorescence ratio
TGTTGACGCC | 0.982
TGTTGCCCGG | 1.05
TGTTGCCGG | 1
TGTTGGCCGT | 1
TGTTGGTACG | 0.959
TGTTGGTCT | 0.978
TGTTGTTACT | 1.01
TGTTTACC | 1.01
TGTTTACGA | 1.01
TGTTTAGAGT | 1
TGTTTAGGG | 0.977
TGTTTCCTGA | 0.971
TGTTTCGT | 1.03
TGTTTCTTCT | 0.987
TGTTTGAGTA | 0.998
TGTTTTAGCC | 0.944
TGTTTTGTA | 0.949
TTAAAAGCAA | 2.29
TTAAACACAG | 1.05
TTAAACATT | 0.982
TTAAACCTAT | 1.02
TTAAACCTCG | 1.12
TTAAAGAAGA | 1.06
TTAAAGACGC | 1.03
TTAAAGATAC | 1.12
TTAAATTAAC | 1.04

Sequence | switch fluorescence ratio
TTAAATTGTG | 0.981
TTAACACGGG | 0.999
TTAACAGGGC | 0.989
TTAACCCTGA | 1.01
TTAACCTTG | 1.06
TTAACGAGCG | 0.977
TTAACGCT | 1.04
TTAACTAATG | 1.08
TTAAGACTAG | 1.01
TTAAGAGGAC | 1.05
TTAAGAGGCG | 0.981
TTAAGCAAAG | 1.02
TTAAGGAAAC | 1.04
TTAAGGGGTG | 1.02
TTAAGGTTCA | 1.06
TTAATAATCG | 0.994
TTAATACTTT | 1
TTAATCGGAT | 0.986
TTAATGATCT | 0.986
TTAATGGTGA | 0.979
TTAATGTGAG | 0.953
TTAATTACGT | 1.05
TTAATTAGCA | 1.02
TTAATTAGGA | 1.03
TTAATTGGAA | 0.957
TTACAAAGTT | 1.04

Sequence | switch fluorescence ratio
TTACAAGAAT | 0.967
TTACAATGCT | 1.09
TTACAATGGG | 1.03
TTACACATGG | 1.07
TTACAGTAAC | 1.1
TTACATATAT | 1.04
TTACATCCCC | 1.21
TTACATGTTT | 1
TTACCAGGGT | 1.07
TTACCATCAG | 1.05
TTACCCGGCC | 1.15
TTACCGAGTT | 0.975
TTACCGCTTA | 1.24
TTACCTTTAT | 1.19
TTACCTTTGA | 1.02
TTACGAATGG | 1.01
TTACGACGA | 1.09
TTACGCAAGA | 4.05
TTACGCGCTT | 1.01
TTACGCTTCC | 2.15
TTACGGATAT | 1.05
TTACGTTGAA | 1.01
TTACTAATCA | 1.03
TTACTAGAAA | 0.98
TTACTAGAGG | 0.988
TTACTAGATT | 1.05

Sequence | switch fluorescence ratio
TTACTCGGAC | 1.06
TTACTGCTTC | 0.969
TTACTGGCGA | 1.01
TTACTGTTGC | 1.01
TTACTTAACG | 1.34
TTACTTGTGT | 0.931
TTAGACAAGA | 0.997
TTAGACACGT | 1.03
TTAGACAGGT | 1.03
TTAGACAGTT | 0.959
TTAGACTATT | 0.962
TTAGACTGTG | 1.04
TTAGAGGCA | 0.98
TTAGATCAG | 1.02
TTAGATCCCG | 1.02
TTAGCACTGC | 2.78
TTAGCATTGC | 1.17
TTAGCCGGTG | 0.968
TTAGCCTTTC | 1.66
